Laboratory results reported in the supplement of paper PMC11417369.
± gives the standard deviation of the averaged measurements. The list shows a part of the results.

The sequences below were run on PfAP2-I AP2 domain 3 (GST-tagged) (assay: gcPBM binding intensity (ln(normalized median fluorescence intensity)); higher = stronger DNA binding).
How it was run: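 The highest Masliner-normalised natural-log median intensity across replicate spots of either probe orientation is reported as binding intensity. GST-tagged P. falciparum DNA-binding domains expressed in E. coli were applied for 1 h to an Agilent 4 × 180k array of primer-extended double-stranded 36-bp intergenic genomic probes plus negative controls, and bound protein was detected with Alexa488 anti-GST antibody and scanned at 488 nm.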

| Sequence | gcPBM binding intensity (ln) |
| --- | --- |
| CTTTAAAACCGGTACTGTACACATAGTATTATTATC [XGTACX_site2602] | 8.03 ± 0.49 |
| ATAATAATAATATAACCAAGGAAATATAATATTTGT [XGTACX_negctrl_site485] | 7.32 ± 0.42 |
| ATATTTATACATAAATGTACTTTTATATATTTAATA [XGTACX_site3020] | 7.64 ± 0.38 |
| AATATTATAAATGATACACACTTAAAATACACGCAC [CACACA_site7305] | 8.71 ± 0.22 |
| TATTACATAATACAAAGTACATATATTTTTTTATTT [XGTACX_site7061] | 7.53 ± 0.33 |
| GTATATATATATATATGTACTAATTAGTAGTTTACG [XGTACX_site6274] | 8.13 ± 0.24 |
| AGCACATATATATTATGTACATATAACTTCCCAGTG [XGTACX_site7095] | 7.78 ± 0.54 |
| AATATTTTATTTTGGGTGCAAAAGAATATTATTTCA | 10.5 ± 0.65 |
| AATATAAATATTAAAACACACATAAAAAGATTATTA [CACACA_site1764] | 7.6 ± 0.26 |
| TGATATTTACAAATATTAAGATCTTATATTTTTTTT [CACACA_negctrl_site617] | 7.3 ± 0.64 |
| GTGTGAAACATAAACACACACAAAAAGAAAAAATAG [CACACA_site1227] | 7.83 ± 0.67 |
| TATATATATATATTACGTACATAGAACTTTATAAAA [XGTACX_site4485] | 9.22 ± 0.23 |
| ATAGAACTATATTGCACACATAATATATATATATAT [CACACA_site3189] | 10.5 ± 0.52 |
| GTAAAAAATATGACAAGTACAAGAAAAGAAAAAAGT [XGTACX_site7906] | 8.38 ± 0.73 |
| AAAAGATTTATACATACACACATATTATATTCACAT [CACACA_site3713] | 7.77 ± 0.71 |
| TTATAAATATAAAAATGTACAGAAAAAAAAAATAAA [XGTACX_site863] | 7.84 ± 0.47 |
| TTATTTTATAATAAAAGTACACAAAAAAAAAAAAAA [XGTACX_site7668] | 8.05 ± 0.37 |
| TTATTTCTCTTTTCAGTGCATTTTATAACAAAAAAA [GTGCAC_site9930] | 9.855 ± 0.078 |
| ATATATATAATATGCGGTACACATTAATTAAATCAT [XGTACX_site5702] | 8.37 ± 0.43 |

| Sequence | gcPBM binding intensity (ln) |
| --- | --- |
| TTATAATATATATACAGTACATATATAAAATAATAT [XGTACX_site5917] | 7.79 ± 0.33 |
| TAATATAAAGAAAAGGAACACACAAATATATATATA [CACACA_site8049] | 8.91 ± 0.099 |
| TTTTCTTGGTTCAGTGTGCACTTATATATATATATA | 10.3 ± 0.2 |
| ATGGACATCTATTGTTGTACACATTTTCCCATAACA [XGTACX_site5429] | 8.12 ± 0.42 |
| GTAGAGCATAATAAAACACACACATACATACATATA [CACACA_site8217] | 8.27 ± 0.24 |
| GAATATAAAATATATATATATATATATATATATATA [GTGCAC_negctrl_site425] | 9.18 ± 0.67 |
| TTTCAAAAATGAGTTACACACACACGGATATAAATA [CACACA_site7116] | 7.87 ± 0.57 |
| AATTTTAAGAGCTATACATGCACTTCATAAAAAGTG [TGCATGCA_site180] | 9.24 ± 0.16 |
| ATAATAAAAAAAAATGCACACATATATATATATATA [CACACA_site8766] | 9.59 ± 0.47 |
| AATATATATATATATACACACACACCGATATATATA [CACACA_site8158] | 8.1 ± 0.52 |
| TAACAATTAATAAAAGGTACACTTGAATATGCACCA [XGTACX_site2717] | 10.8 ± 0.59 |
| TTAATATTTAGACATGCATGCTAATTACTATATATA [TGCATGCA_site27] | 7.83 ± 0.24 |
| ATTAATAAGAAATATACACACATGGATAAATACATA [CACACA_site1872] | 7.58 ± 0.64 |
| TTTCTTGCTACATGAAGTACACTTTCTATGACTCGT [XGTACX_site5583] | 7.92 ± 0.48 |
| TATGATATAATTATGTGTACACAATTTTTTTTTTTT [XGTACX_site1084] | 8.05 ± 0.028 |
| ATATATATTTTATTCACACATAAGATTATAAAACAT [CACACA_site5369] | 7.96 ± 0.4 |
| TGTGTTCAGTATTGCACACACACAACAAAATAAAAA [CACACA_site8017] | 10 ± 0.74 |
| TTATTGCATTGTTTTTATAAAAAAAAAAAAAAAATT [XGTACX_negctrl_site104] | 7.85 ± 0.17 |
| TAATTATGCAGACACACACACACACCCAACTAAAAA [CACACA_site2569] | 8.38 ± 0.2 |

| Sequence | gcPBM binding intensity (ln) |
| --- | --- |
| TATTTATTGTGATACTTATATTACTTAATGATTAAA [CACACA_negctrl_site676] | 7.42 ± 0.42 |
| CTATTTCATGGACACACACACACAAACAAACATATA [CACACA_site4696] | 8.29 ± 0.2 |
| ATATATTATATAAAGTGTACAAAAAAAATATATAAA [XGTACX_site8065] | 8.12 ± 0.6 |
| ATTGTCTTCTCATATACACACTTTTATGACTATCTT [CACACA_site5696] | 8.03 ± 0.66 |
| TGTGTAATTATATATAAGGAGAAAGAATTCATTTTT [CACACA_negctrl_site670] | 7.57 ± 0.65 |
| ACAAAAAATAATCAAAATGTATATATATAATATAAT [XGTACX_negctrl_site593] | 7.77 ± 0.42 |
| TATTGAAGTTATAAAGTGCAGATAAATATGAGTTAT [GTGCAC_site9945] | 9.34 ± 0.24 |
| AAATGCCATATAATTTTTCTTAAACATAATTGTATA [CACACA_negctrl_site1665] | 7.42 ± 0.71 |
| GATTATACAAAATATACACACGTGTAGACAAATATT [CACACA_site4785] | 7.86 ± 0.76 |
| ATAATATTATTATAATGTACATATTTCGATATAAAT [XGTACX_site8808] | 7.81 ± 0.45 |
| ATATTTAATGTTAATTGTACATATTATATATATATA [XGTACX_site6095] | 9.22 ± 0.15 |
| AAAAAAATATATATTACACACATATATACCTATATA [CACACA_site5688] | 7.71 ± 0.57 |
| ATATATATTAATAGGTGTACATATAAAGTGTTATGT [XGTACX_site5464] | 8.21 ± 0.43 |
| AAAAAAAAATTTTTAAAATTTAGAAAATTTAAAAAA [GTGCAC_negctrl_site649] | 7.17 ± 0.31 |
| TAATAATGCAACCTCTGTACACAACATTATATCCAT [XGTACX_site7596] | 9.68 ± 0.32 |
| TATATATAAGCGTGTACACATTCTGAGTGTTGTATA [CACACA_site4502] | 8.09 ± 0.45 |
| AATACATTGTCAAATTGTACAAATTATAGAACTATT [XGTACX_site2222] | 7.68 ± 0.52 |
| CCATAAAAAGGATACACACACACACCCACATATATA [CACACA_site903] | 8.02 ± 0.24 |
| TGTTTTTATATATATGCACACAATGTACAAGTATAC [CACACA_site3529] | 9.52 ± 0.028 |
